{"source": "patent US6365759B1", "about": "“Intermediate compounds for preparing macrocylcic analogs” (Eisai Co., Ltd., priority 1998, dated 2002)", "system": "COLO 205 human colon cancer xenografts", "conditions": "sub-cutaneous xenografts in nude mice", "note": "Like-named read-outs stand apart in the source and are kept apart here.", "data": [{"molecule": "CC[C@]1(O)C[C@@H]2CN(CCc3c([nH]c4ccccc34)[C@@](C(=O)OC)(c3cc4c(cc3OC)N(C)[C@H]3[C@@](O)(C(=O)OC)[C@H](OC(C)=O)[C@]5(CC)C=CCN6CC[C@]43[C@@H]65)C2)C1", "note": "[Vinblastine, reference compound]", "values": [{"measurement": "in vivo anticancer activity (cancer growth inhibition)", "setting": "0.3 mg/kg", "result": "inactive"}, {"measurement": "in vivo anticancer activity (cancer growth inhibition)", "setting": "1 mg/kg, FIG. 5", "result": "inactive"}]}, {"molecule": "CC[C@]1(O)C[C@H]2CN(CCc3c([nH]c4ccccc34)[C@@](C(=O)OC)(c3cc4c(cc3OC)N(C=O)[C@H]3[C@@](O)(C(=O)OC)[C@H](OC(C)=O)[C@]5(CC)C=CCN6CC[C@]43[C@@H]65)C2)C1", "note": "[Vincristine, reference compound]", "values": [{"measurement": "in vivo anticancer activity (cancer growth inhibition)", "setting": "0.3 mg/kg", "result": "moderate growth inhibition"}, {"measurement": "in vivo anticancer activity (cancer growth inhibition)", "setting": "1 mg/kg, FIG. 5", "result": "substantial cancer growth inhibitory activity"}]}]}
